# About 2,200 (0.71%) of roughly 310,000 compounds showed an effect of 50% or more. Effects have a minus sign here. The list shows a part of the results.
# Target: human ether-à-go-go-related gene (hERG) potassium channel (human, UniProt Q12809)
# Assay: primary screen, population patch clamp on CHO cells stably expressing hERG
# Chain of human ether-à-go-go-related gene (hERG) potassium channel (Q12809 whole entry, looked up): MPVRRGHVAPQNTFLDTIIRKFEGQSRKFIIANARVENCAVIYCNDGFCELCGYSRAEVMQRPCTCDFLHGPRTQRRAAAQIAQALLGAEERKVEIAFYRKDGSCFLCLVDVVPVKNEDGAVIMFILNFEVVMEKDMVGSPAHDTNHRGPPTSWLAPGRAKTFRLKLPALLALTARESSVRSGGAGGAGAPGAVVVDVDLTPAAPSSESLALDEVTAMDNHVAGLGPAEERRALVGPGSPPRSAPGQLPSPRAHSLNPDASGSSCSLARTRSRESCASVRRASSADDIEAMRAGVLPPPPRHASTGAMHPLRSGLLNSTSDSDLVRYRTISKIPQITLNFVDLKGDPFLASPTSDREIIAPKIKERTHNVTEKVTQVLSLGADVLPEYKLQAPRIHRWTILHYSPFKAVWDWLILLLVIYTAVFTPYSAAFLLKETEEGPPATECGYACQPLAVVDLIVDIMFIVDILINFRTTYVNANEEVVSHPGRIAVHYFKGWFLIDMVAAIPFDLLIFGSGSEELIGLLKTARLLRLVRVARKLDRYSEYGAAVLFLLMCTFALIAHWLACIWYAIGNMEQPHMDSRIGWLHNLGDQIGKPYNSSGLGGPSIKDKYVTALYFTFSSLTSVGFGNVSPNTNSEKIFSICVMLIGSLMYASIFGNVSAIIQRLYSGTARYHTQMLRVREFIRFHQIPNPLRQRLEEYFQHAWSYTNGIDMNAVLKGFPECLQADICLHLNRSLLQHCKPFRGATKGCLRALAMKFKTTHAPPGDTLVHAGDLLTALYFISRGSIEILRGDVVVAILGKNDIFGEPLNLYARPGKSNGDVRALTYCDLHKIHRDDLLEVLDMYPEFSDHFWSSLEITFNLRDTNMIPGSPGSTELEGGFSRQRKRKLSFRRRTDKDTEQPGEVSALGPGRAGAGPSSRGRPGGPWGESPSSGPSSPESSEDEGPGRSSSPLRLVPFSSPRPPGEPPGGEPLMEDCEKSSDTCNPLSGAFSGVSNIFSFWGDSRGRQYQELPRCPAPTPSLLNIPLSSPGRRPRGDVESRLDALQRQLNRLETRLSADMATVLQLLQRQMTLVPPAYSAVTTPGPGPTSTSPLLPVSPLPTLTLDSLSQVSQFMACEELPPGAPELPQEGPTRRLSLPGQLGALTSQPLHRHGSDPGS
row,Structure (SMILES),"hERG current change (%, negative = inhibition) at 1uM [%]"
1,COc1ccc(C(=O)C2CCCN(Cc3ccc4c(c3)OCCO4)C2)cc1F (stereo not drawn),-42.1
2,CC(C)(C)OC(=O)N1CCC(c2cc(=O)n3[nH]cc(C(=O)Nc4ccc(F)c(Cl)c4)c3n2)CC1,16.1
3,O=C(NCc1cccnc1)c1csc2c1CCCC2,6.9
4,COc1nc(N2CCCCCC2)nc(N2CCCCCC2)n1,6.08
5,COc1ccc(CC(=O)OC(C)C(=O)Nc2ccc(S(N)(=O)=O)cc2)cc1 (stereo not drawn),6.9
6,O=C(N/N=C/C(Br)=C\c1ccccc1)c1cccs1,6.04
7,CC(=O)N1CCc2cc(S(=O)(=O)NCCCN3CCCCC3)ccc21,18.2
8,S=C(Nc1ccccc1)Nc1nc2ccccc2n1CCOc1ccccc1,5.63
9,COc1ccc2c(c1)C=C(CN1CCN(Cc3ccccc3C)C(CCO)C1)CO2 (stereo not drawn),-0.556
10,Cl.O=C(O)c1ccc(CNCc2ccccc2F)cc1,8.33
11,c1ccc(Nc2nc3ccccc3o2)cc1,19.3
12,C=CCOc1ccc(/C=C2\SC(=Nc3cccnc3)NC2=O)cc1,8.13
13,Cc1onc(-c2c(F)cccc2Cl)c1C(=O)N1CCN(c2ncc(Br)cn2)CC1,7.62
14,CC(C)[C@@H](N)C(=O)NCC1CCC(C(=O)N[C@@H](Cc2ccccc2)C(=O)O)CC1.Cl (stereo partly drawn),14
15,O=C(CN(c1ccc(Cl)c(Cl)c1)S(=O)(=O)c1ccccc1)N1CCc2ccccc2C1,9.71
16,O=C(CN1CCN(Cc2ccccc2)C1=O)NCCCN1CCOCC1,12.8
17,CCOc1ccc(N=C2SCC(=O)N2CC)cc1,14.2
18,COc1ccc(CCNC(=O)c2cc(-c3cc(Cl)ccc3O)n[nH]2)cc1OC,11.8
19,CC(C)(C)NC(=O)CSc1ccc(C(C)(C)C)cc1,13.2
20,O=C(Oc1cncc(Cl)c1)c1ccco1,14.1
21,COC(=O)CNC(=O)c1cc(-c2ccncc2)nc2c(C)c(Cl)ccc12,6.54
22,COCc1cc(C)n(CC(=O)Nc2ccc(Cl)cc2Cl)c(=O)c1C#N,10.7

row,Structure (SMILES),"hERG current change (%, negative = inhibition) at 1uM [%]"
1,CC(=O)c1cc2c(cc1NC(=O)CCc1c(C)nc3ncnn3c1C)OCO2,8.93
2,CCOC(=O)C1(Cc2cccc(OC)c2)CCCN(C(=O)c2cc(C)[nH]n2)C1 (stereo not drawn),1.62
3,C/C(=N\NC(=O)c1nnn(-c2nonc2N)c1CSc1ccccc1)c1ccco1,13.7
4,Cc1ccc(C)c(NC(=O)C(CC(=O)O)Cc2ccccc2)c1 (stereo not drawn),10.9
5,O=C(C1CCCC1)N1CCCC(Nc2ccccc2)C1 (stereo not drawn),-1.84
6,CCOC(=O)N1CCC(NC(=O)CCC(=O)c2ccccc2)CC1,3.19
7,Cc1ccc(C(=O)N/C(=C\c2ccc(C(C)C)cc2)C(=O)NCCCN2CCOCC2)cc1,-61.4
8,CCCOc1ccc(NC(=O)CCC(=O)NC(C)c2ccccc2)cc1 (stereo not drawn),18.7
9,Cc1nn(-c2ccccc2)c(Cl)c1C(=O)NC1CCCCC1,13.2
10,CC(=O)Nc1cccc(NC(=O)C2CC(=O)N(C3CCCCC3)C2)c1 (stereo not drawn),0.859
11,C=CCNc1nc(N(c2ccccc2)c2ccccc2)nc(-n2ccnc2)n1,2.6
12,Cc1cccc(NC(=O)C(=O)C2C(=O)Nc3ccccc32)c1 (stereo not drawn),2.41
13,CC1CCCCC1NC(=O)COC(=O)c1cccn1C (stereo not drawn),7.83
14,C=C1CCC[C@]2(C)C[C@H]3OC(=O)C(CN[C@@H](C)c4ccccc4)[C@H]3CC12 (stereo partly drawn),9.34
15,O=C(NCc1ccco1)C1CCCN(c2nnc(-n3cccc3)s2)C1 (stereo not drawn),-5.96
16,COc1ccc(O)c(-c2[nH]ncc2C(=O)c2cccc(C)c2)c1,14.5
17,O=[N+]([O-])c1ccc(O)c(N=Cc2sc3ccccc3c2O)c1,7.29
18,O=C(NCC1CCCN(Cc2ccc3c(c2)OCCO3)C1)c1ccc2c(c1)OCO2 (stereo not drawn),3.91
19,COc1ccc(N(CC(=O)Nc2cccc(C(C)=O)c2)S(=O)(=O)c2ccc(NC(C)=O)cc2)cc1,13.9
20,CCOc1c(Cl)cc(/C=N/O)cc1OC,14.2
21,O=C(CSc1oc(-c2ccccc2)nc1S(=O)(=O)c1ccccc1)NCC1CCCO1 (stereo not drawn),17.8
22,Fc1ccc(C2=NN(c3ccccc3)C(c3ccco3)C2)cc1 (stereo not drawn),6.45

row,Structure (SMILES),"hERG current change (%, negative = inhibition) at 1uM [%]"
1,COc1ccc(N2CCN(C(=O)c3cc4c(-c5ccc(Cl)cc5)nn(C)c4s3)CC2)cc1,-2.22
2,O=C(Cc1ccc(S(=O)(=O)N2CCOCC2)s1)N1CCN(S(=O)(=O)c2cccc([N+](=O)[O-])c2)CC1,8.41
3,O=P(C(c1ccc2c(c1)OCO2)N1CCOCC1)(N1CCOCC1)N1CCOCC1 (stereo not drawn),9.69
4,Brc1ccccc1/C=N/Nc1ccccn1,13.9
5,CCOC(=O)CCC(NC(=O)c1ccccc1C(=O)NC(CCC(=O)OCC)C(=O)OCC)C(=O)OCC (stereo not drawn),-0.173
6,C/C(=N/OC(=O)c1c(-c2c(F)cccc2Cl)noc1C)c1cnccn1,7.54
7,CCCCCn1c(SCCc2ccccc2)nc2c1c(=O)[nH]c(=O)n2C,0.944
8,COc1ccc(N2CC(C(=O)OC(C)C(=O)c3ccccc3)CC2=O)cc1 (stereo not drawn),19.1
9,CS(=O)(=O)N(CC(=O)NCc1ccncc1)C1CCCCC1,4.61
10,CC(=O)N(CC(=O)Nc1sc(C)c(C)c1C(N)=O)Cc1ccccc1,8.25
11,CCC(C(=O)Nc1ncccn1)(C(F)(F)F)C(F)(F)F,10.6
12,Cc1ccc(NC(=O)CN2C(=O)NC3(CCC(C)CC3)C2=O)c(Cl)c1 (stereo not drawn),10.3
13,CCCCCCSc1ccc([C@H]2N[C@@](CC(C)C)(C(=O)OC)[C@H]3C(=O)N(C)C(=O)[C@@H]23)cc1OC.O=C(O)C(F)(F)F,-10
14,CCOc1ccc2c(c1)-c1c(ssc1=S)C(C)(C)N2C(=O)c1ccco1,10.9
15,Cc1ccc(S(=O)(=O)c2c(N)n(-c3ccccc3)c3nc4ccccc4nc23)cc1,14.2
16,CC[C@@H](C)[C@H](NC(=O)Cc1c(C)c2c(cc(C)c3c(C)coc32)oc1=O)C(=O)O,11
17,Cn1cc(CN2CCN(Cc3cccnc3)CC2)c(-c2ccc3c(c2)OCCO3)n1,-1.66
18,COc1ccc(NC(=O)N2CCCCC2)cc1,-3.8
19,Cc1ccc(NC(=O)C(=O)NCCN2CCN(S(C)(=O)=O)CC2)cc1,8.89
20,CCOC(=O)C1=C(C)NC(=O)NC1c1ccc(-c2ccc(Cl)cc2)o1 (stereo not drawn),2.14
21,CCc1c(C(=O)Nc2ccccc2C(N)=O)csc1C,5.86
22,C=CCSc1nc(N)c(C#N)c(-c2ccc(C)cc2)c1C#N,5.21

row,Structure (SMILES),"hERG current change (%, negative = inhibition) at 1uM [%]"
1,Cc1nc2ccc(NC(=S)N3CCOCC3)cc2nc1C,11.4
2,Cl.OCCN1CCN(CC(O)COc2ccc(-c3ccccc3)cc2)CC1 (stereo not drawn),-13.5
3,Cc1cc(C(=O)CSc2nnnn2-c2ccccc2)c(C)n1-c1ccc2c(c1)OCO2,5.36
4,CCN(CC)S(=O)(=O)c1ccc(N2CCOCC2)c(NS(=O)(=O)c2ccc(C(C)C)cc2)c1,5.31
5,Nc1c(S(=O)(=O)c2cccs2)c2nc3ccccc3nc2n1CCc1ccccc1,3.16
6,CN(C)S(=O)(=O)c1ccc(S(=O)(=O)N2CCCC(C(=O)NC3CC3)C2)cc1 (stereo not drawn),13.9
7,COc1ccc(OC)c(-n2c(SCC(N)=O)nnc2-c2c[nH]c3ccccc23)c1,6.16
8,Cc1ccc(N(C(C)C(=O)N2CCCCC2)S(C)(=O)=O)cc1C (stereo not drawn),3.16
9,Cc1ccc2sc(=O)[nH]c2c1,17.6
10,O=C(C1CC1)n1cc(C(=S)N2CCOCC2)c2ccccc21,5.21
11,COc1ccc(Br)cc1CNC(=O)C1CCN(S(=O)(=O)N2CCCC2)CC1,-10
12,O=C(COC(=O)/C=C/c1ccc(F)cc1)Nc1cccc(S(=O)(=O)N2CCCC2)c1,13
13,Nc1nc(NCCc2ccccc2)nc(NCc2ccccc2)c1[N+](=O)[O-],13.7
14,Cc1ccc(/C=N/NC(=O)c2csc(C)c2)o1,12.2
15,N/C(=N\OC(=O)c1ccc(Cl)cc1[N+](=O)[O-])c1ccccn1,9.63
16,CC1(C)CC(C(=O)Nc2ccccc2)C(=O)O1 (stereo not drawn),12.6
17,CCN(CC)S(=O)(=O)c1ccc2c(c1)nc(CCC(=O)O)n2CC,13.9
18,O=[N+]([O-])c1ccc(-c2c(-c3ccccc3)ncc3cc(F)ccc23)cc1,8.54
19,COCC(=O)N1CCC(Oc2ccc(C(=O)NCCc3ncccc3C)cc2)CC1,15.7
20,CN1CCN(NC(=O)Nc2cccc(F)c2)CC1,10.1
21,Cc1ccc(C)c(NC(=O)CN(C)C(=O)CN2C(=O)NC3(CCc4ccccc43)C2=O)c1 (stereo not drawn),7.82

# — PMC4336329 (PLoS ONE, 2015)
